Out of some 310,000 compounds screened, about 2,200 (0.71%) showed an effect of 50% or more. Effects have a minus sign here. This is one part of the list.
Each molecule was assayed against human ether-à-go-go-related gene (hERG) potassium channel (human, UniProt Q12809) (assay: primary screen, population patch clamp on CHO cells stably expressing hERG).
human ether-à-go-go-related gene (hERG) potassium channel, sequence (Q12809 whole entry, looked up): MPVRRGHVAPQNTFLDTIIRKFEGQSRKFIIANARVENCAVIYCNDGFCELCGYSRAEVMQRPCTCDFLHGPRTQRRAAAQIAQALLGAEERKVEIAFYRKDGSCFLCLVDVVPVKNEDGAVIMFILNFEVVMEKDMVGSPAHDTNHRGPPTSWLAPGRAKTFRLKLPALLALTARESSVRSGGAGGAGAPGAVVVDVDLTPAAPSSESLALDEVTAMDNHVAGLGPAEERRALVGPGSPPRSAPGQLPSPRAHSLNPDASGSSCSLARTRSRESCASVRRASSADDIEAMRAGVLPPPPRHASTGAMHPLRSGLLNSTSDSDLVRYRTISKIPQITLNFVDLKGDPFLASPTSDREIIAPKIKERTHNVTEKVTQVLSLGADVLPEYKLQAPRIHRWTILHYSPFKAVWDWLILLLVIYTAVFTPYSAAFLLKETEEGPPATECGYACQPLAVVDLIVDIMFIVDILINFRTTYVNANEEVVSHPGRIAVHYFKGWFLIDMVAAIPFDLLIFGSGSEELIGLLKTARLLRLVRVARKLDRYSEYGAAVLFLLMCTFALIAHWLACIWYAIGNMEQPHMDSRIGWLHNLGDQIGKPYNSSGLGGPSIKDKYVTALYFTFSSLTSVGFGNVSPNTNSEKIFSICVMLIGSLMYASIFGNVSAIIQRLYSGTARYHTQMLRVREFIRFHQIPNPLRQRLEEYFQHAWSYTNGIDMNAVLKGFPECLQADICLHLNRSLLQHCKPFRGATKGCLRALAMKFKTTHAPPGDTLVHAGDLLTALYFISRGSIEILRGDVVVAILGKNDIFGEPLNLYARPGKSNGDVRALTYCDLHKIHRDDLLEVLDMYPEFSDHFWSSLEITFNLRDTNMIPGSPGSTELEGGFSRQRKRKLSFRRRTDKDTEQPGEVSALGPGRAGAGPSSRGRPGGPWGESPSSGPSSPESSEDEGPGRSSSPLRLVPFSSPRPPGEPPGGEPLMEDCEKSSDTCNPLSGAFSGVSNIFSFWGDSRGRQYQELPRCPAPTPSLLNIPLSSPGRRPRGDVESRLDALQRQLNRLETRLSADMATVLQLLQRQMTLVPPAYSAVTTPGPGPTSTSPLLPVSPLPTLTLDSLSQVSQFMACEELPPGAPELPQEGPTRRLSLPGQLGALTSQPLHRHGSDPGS

SMILES	hERG current change (%, negative = inhibition) at 1uM [%]
Cc1nn(C)cc1S(=O)(=O)N1CCN(Cc2cccc(Cl)c2)CC1	8.22
COc1ccc(/C=C/CN2CCN(Cc3cccc(OC)c3)C(CCO)C2)cc1 (centres unmarked)	-20.7
O=c1c([N+](=O)[O-])c(N2CCOCC2)c2ccccc2n1-c1ccccc1	8.47
Cc1ccccc1OCC(=O)NC(C)c1ccccc1 (centres unmarked)	13.5
CN(c1ccccc1)S(=O)(=O)c1cccc(NC(=O)CSc2nnc(C3CC3)n2C)c1	16.4
COc1ccc(OC(C)C(=O)N(C)Cc2nc(-c3ccc(C)cc3)no2)cc1 (centres unmarked)	4.24
COc1ccc(C(=O)N=c2sccn2C)cc1	24.4
CC(=O)c1ccc(N2CCN(C(=O)CCCc3nc4ccccc4s3)CC2)cc1	-7.74
COC(=O)Cc1ccc(NC(=S)N2CCN(C)CC2)cc1	7.03
O=C(C[n+]1ccc(C(=O)N/N=C/c2ccc(O)cc2)cc1)c1ccccc1.[Br-]	4.63
COc1ccc(C(=O)N2CCN(c3ccc(N4CCOCC4)nn3)CC2)cc1OC	12.6
O=C(Cn1cnc2scc(-c3cccc([N+](=O)[O-])c3)c2c1=O)NCc1ccco1	-11.9
Cc1ccc(S(=O)(=O)CCC(=O)OCC(=O)NCc2ccc(Cl)cc2)cc1	33.1
COc1ccc(C(CCNCc2ccc(F)cc2)c2ccc(F)cc2)cc1 (centres unmarked)	-3.35
COc1ccc(NS(=O)(=O)c2ccc(NC(=O)C3CC3)cc2)cc1	16.8
CSC1=NCCN1S(=O)(=O)c1ccc(NC(C)=O)cc1	-5.94
COc1ccc(CNc2oc(C)nc2C#N)cc1	1.32
COC(=O)N/N=C/c1ccccc1OCCOc1ccc(OC)cc1	19.5
O=C(NCC(c1ccco1)N1CCc2ccccc21)c1ccccc1F (centres unmarked)	1.96
COc1cccc(C2C3=C(N=c4s/c(=C\c5ccc(O)cc5)c(=O)n42)c2ccccc2CC3)c1OC (centres unmarked)	13.1
CC(N=c1ccccn1C(=O)Nc1ccc(Cl)cc1)c1ccco1 (centres unmarked)	12
CCCn1c(SCC(=O)NC(C)C23CC4CC(CC(C4)C2)C3)n[nH]c1=O (centres unmarked)	-10.2
CCO/C=C1/C(=O)N(c2ccccc2OC)C(=O)c2ccccc21	13.1

SMILES	hERG current change (%, negative = inhibition) at 1uM [%]
CC(C)Oc1ccc(C(=O)Nc2ccc(N3CCCC3)cc2)cc1	4.58
CCN1CNC(=S)N(c2cc(C)ccc2C)C1	12.3
COc1ccccc1N(CC(=O)N1CCCCC1)S(=O)(=O)c1ccccc1	10.1
O=C(CSc1nc(-c2ccccc2)nc2ccccc12)Nc1nccs1	0.655
CC1CCN(CC(=O)n2c3c(c4ccccc42)CCCC3)CC1.Cl	12.3
CCCCC(=O)NC(Nc1nc(C2CC2)cs1)(C(=O)OCC)C(F)(F)F (centres unmarked)	-1.7
CCOC(=O)Cc1csc(-n2sc3ccccc3c2=O)n1	14.6
Cc1ccc(S(=O)(=O)N2CCOCC2)cc1NC(=O)CSc1nnc(C2CC2)n1C1CC1	10.9
O=C(Nc1ccc(Cc2ccncc2)cc1)C1CCC(N2C(=O)C3C4C=CC(C4)C3C2=O)CC1 (centres unmarked)	7.25
COc1cccc2c1cc1c(=O)n(CC(=O)N3CCC(C)CC3)nc(C)n12	14.2
O=C(N/N=C/c1ccccc1[N+](=O)[O-])c1ccc(CN2CCOCC2)cc1	4.45
COc1ccc(CCNC(=O)c2cc3c(=O)n4cccc(C)c4nc3s2)cc1OC	14.6
Cc1cc(C)cc(N(C(=O)Cn2nnc(-c3ccccc3)n2)C(C(=O)NC2CCCCC2)c2ccccn2)c1 (centres unmarked)	-1.15
CCC1CCCN1Cn1cnc2c([nH]c3ccccc32)c1=O (centres unmarked)	-45.7
CCOC(=O)c1[nH]c(C)c(C(=O)NCCN2CCOCC2)c1C	6.14
CCOc1ccc(NC(=O)NC(=O)N(C)S(=O)(=O)c2ccc(C)cc2)cc1	1.19
O=C(CNC(=O)Cn1ccc2ccccc2c1=O)NCCCN1CCN(c2cccc(Cl)c2)CC1	-19.7
O=C(c1cc2cc(F)ccc2[nH]1)N(Cc1cccnc1)CC1CCCN(C2CCCCC2)C1 (centres unmarked)	-81
COc1ccc(-c2oc3cccnc3c2-c2ccc(OC)nc2)cc1	-4.58
CC(OC(=O)CCCN1C(=O)c2ccccc2C1=O)C(=O)Nc1ncc(Cl)cc1Cl (centres unmarked)	1.28
O=C(NCCc1ccccc1)C(=O)NCC1OCCN1S(=O)(=O)c1ccccc1 (centres unmarked)	1.2
O=C(CN1CCCCCC1)N/N=C/c1cccs1	10.1
COc1ccc(OC)c(C(=O)CN2C(=O)NC(C)(c3ccccc3)C2=O)c1 (centres unmarked)	9.66

SMILES	hERG current change (%, negative = inhibition) at 1uM [%]
CCOC(=O)CSc1nc2ccccc2n1CC(=O)NC(C)(C)C	14.1
O=C(NC(=S)N1CCN(Cc2ccc3c(c2)OCO3)CC1)c1ccc(Cl)cc1	-3.62
O=C(c1ccco1)N1CCN(S(=O)(=O)c2ccccc2)CC1	13.1
CCc1n[nH]c(=O)n1Cn1c(CC)n[nH]c1=O	4.91
O=C(Nc1cccc(C(=O)Nc2cccc(Br)c2)c1)c1ccccc1	10.3
O=C(COC(=O)CCSc1ccccc1)Nc1cc(F)ccc1F	16.8
Cc1nn(-c2ccc(N3CCCCC3)nn2)c(C)c1CCC(=O)Nc1cccc(F)c1	3.39
CCn1c(SCC(=O)NC(C)(C)C)nc(O)cc1=O	12
O=[N+]([O-])c1cccc(/C=N/Nc2nc(NCc3ccccc3)nc(N3CCOCC3)n2)c1O	6.12
COC(=O)CN1C(=O)S/C(=C/c2ccc(N3CCCCC3)o2)C1=O	14.6
CCN(CC)c1ccc(N=Cc2c(O)n(Cc3ccccc3)c(=O)[nH]c2=O)cc1 [14729657]	5.11
O=C(NC1(C(F)(F)F)NC(=O)N(CCc2ccccc2)C1=O)C1CC1 (centres unmarked)	4.33
O=C(N1CCCC1)C12CC3CC(C1)CC(C(=O)N1CCCC1)(C3)C2	9.6
CC(Oc1ccc(Cl)cc1Cl)C(=O)NCCC1=CCCCC1 (centres unmarked)	4.75
COc1ccc(Cc2nnc(N)s2)cc1	12.3
CC(C)C(=O)Nc1ccc(NC(=O)c2ccc3c(c2)OCO3)cc1	9
CC(C)(C)NS(=O)(=O)c1ccc2c(c1)oc(=O)c1cc(S(=O)(=O)NC(C)(C)C)ccc12	11.3
CSCc1ccc(C(=O)Nc2cccc(C)c2C)cc1	-0.605
O=C(NCCO)C1CCN(S(=O)(=O)c2ccc(F)cc2)CC1	5.41
CCOCCCNC(=O)CCNC(=O)c1cc(OC)c(OC)c(OC)c1	-2.31
CCC(C)Sc1ccc(-c2nc3ccc(C)cn3c2NCc2ccccc2)cc1OC.O=C(O)C(F)(F)F (centres unmarked)	10.2
Cc1cccc2sc(NC(=O)c3ccc(NS(=O)(=O)c4cccs4)cc3)nc12	-0.227
COc1cccc(-c2cc(C(F)(F)F)nc(N3CCCCC3)n2)c1	15.9

SMILES	hERG current change (%, negative = inhibition) at 1uM [%]
Cc1ccc(NC(=O)C2CC2c2ccccc2)c([N+](=O)[O-])c1 (centres unmarked)	11.8
CSC(=Nc1ccc(Cl)cc1)N[n+]1ccccc1.[I-]	-10.3
CCCc1cc(=O)c2ccc(OCC(C)=O)cc2o1	2.43
CC(C)OCCCNC(=O)CN1CCN(Cc2ccc(Cl)cc2)C1=O	11.4
CC(C)(O)C(O)COc1c2ccoc2cc2oc(=O)ccc12 (centres unmarked)	14.9
O=C(CCC1CCCCC1)NCCN1CCOCC1	10.3
CCOC(=O)c1cn(Cc2ccc(Br)cc2)nn1	-0.88
O=C(/C(=N\O)n1cncn1)c1ccc(Br)cc1Br	-20.7
O=C(NCc1cccs1)C1CCN(S(=O)(=O)c2cccc3nsnc23)CC1	-3.12
O=S(=O)(c1cccc2cccnc12)N1CCOCC1	7.37
CCOC(=O)C1=C(C)N(C)C(=O)NC1c1cc2c(cc1Br)OCO2 (centres unmarked)	0.604
CC(C)OC(=O)c1ccc(NC(=S)NC(=O)c2cncc(Br)c2)cc1	5.11
CN(CC(=O)Nc1ccccc1C(F)(F)F)C(=O)COc1ccccc1Cc1ccccc1	10.3
Cc1onc(-c2c(F)cccc2Cl)c1C(=O)N(C)CC(=O)Nc1cccc(F)c1	9.79
CCOC(=O)N1CCC(Nc2c(NCCN3CCN(c4ccccc4F)CC3)c(=O)c2=O)CC1	2.59
CCCN(CCC)C(=O)CC(c1ccccc1)c1ccco1 (centres unmarked)	2.97
CC(C)CCc1noc(CN2CCC(CCN3CCCC3=O)CC2)n1	11.4
CCCN(Cc1cc2cc(C)ccc2[nH]c1=O)S(C)(=O)=O	16.6
COc1ccccc1/C=N\Nc1ccccc1[N+](=O)[O-]	19.3
CCOc1ccc(N2C(=O)CN(C)C2=S)cc1	15
